Measurements: PubChem BioAssay AID220 (DTP/NCI, 2004)
Results filed as inconclusive are left out. Not every entry of the source has a single result; some have several. The other results are left out here. An entry can have further records. Values given together repeat one measurement in other runs, samples, wells, individuals or studies.

System: CD8F1 mice, subcutaneous mammary adenocarcinoma, T/C%
Test: NCI In Vivo Anticancer Drug Screen. Data for tumor model Mammary Adenocarcinoma CD8F1 (subcutaneous) in CD8F1
Conditions: higher = larger tumour
Procedure: The antitumor activity of compounds was measured in mice bearing transplantable tumors. Survival or tumor size were measured and the results are expressed as the measurement made in the treated group (T) divided by the measurement made in the vehicle treated control group (C). The tumor model used in this assay is Mammary Adenocarcinoma CD8F1 (subcutaneous) in CD8F1

O=C1NC2(CCCCC2)C(=O)N1CCN(CCCl)CCCl
T/C (endpoint: median tumor weight change, dose: 18.75 mg/kg/injection, schedule: Q01DX001 (ip), vehicle: saline with Tween-80): 34 % of control and 74 % of control
T/C (endpoint: median tumor weight change, dose: 37.5 mg/kg/injection, schedule: Q01DX001 (ip), vehicle: saline with Tween-80): 22 % of control and 64 % of control

CC(=O)OCc1cc(=O)n(C)c2c3c4c(cc12)c(C)cc(=O)n4CO3
T/C (endpoint: median tumor weight (est.), dose: 25.0 mg/kg/injection, schedule: Q07DX005 (ip), vehicle: Klucel (hydroxypropylcellulose) (HPC)): 40 % of control and 66 % of control
T/C (endpoint: median tumor weight (est.), dose: 50.0 mg/kg/injection, schedule: Q07DX005 (ip), vehicle: Klucel (hydroxypropylcellulose) (HPC)): 65 % of control and 105 % of control

CC(=O)c1c(O)c(C)c(O)c2c1OC1=CC(=O)C(C(C)=O)C(=O)C12C (configuration not stated)
T/C (endpoint: median tumor weight (est.), dose: 12.5 mg/kg/injection, schedule: Q04DX005 (ip), vehicle: gum acacia): 61 % of control and 106 % of control
T/C (endpoint: median tumor weight (est.), dose: 25.0 mg/kg/injection, schedule: Q04DX005 (ip), vehicle: gum acacia): 78 % of control and 106 % of control
T/C (endpoint: median tumor weight (est.), dose: 100.0 mg/kg/injection, schedule: Q04DX005 (ip), vehicle: gum acacia): 71 % of control and 120 % of control
T/C (endpoint: median tumor weight (est.), dose: 200.0 mg/kg/injection, schedule: Q04DX005 (ip), vehicle: gum acacia): 73 % of control and 117 % of control

CC(=Nc1ccccc1)C1=C(O)C(Cc2ccccc2)NC1=O (configuration not stated)
T/C (endpoint: median tumor weight (est.), dose: 25.0 mg/kg/injection, schedule: Q07DX005 (ip), vehicle: saline with Tween-80): 111 % of control and 198 % of control
T/C (endpoint: median tumor weight (est.), dose: 100.0 mg/kg/injection, schedule: Q07DX005 (ip), vehicle: saline with Tween-80): 96 % of control and 311 % of control

N=[N+]=CC(=O)OCC(N)C(=O)O (configuration not stated)
T/C (endpoint: median tumor weight (est.), dose: 12.5 mg/kg/injection, schedule: Q07DX005 (ip), vehicle: water): 38 % of control and 105 % of control
T/C (endpoint: median tumor weight (est.), dose: 25.0 mg/kg/injection, schedule: Q07DX005 (ip), vehicle: water): 26 % of control and 92 % of control

CCOC(C)C(/C=N/NC(N)=S)=NNC(N)=S (configuration not stated)
T/C (endpoint: median tumor weight (est.), dose: 12.5 mg/kg/injection, schedule: Q07DX005 (ip), vehicle: saline with Tween-80): 53 % of control and 115 % of control
T/C (endpoint: median tumor weight (est.), dose: 200.0 mg/kg/injection, schedule: Q07DX005 (ip), vehicle: saline with Tween-80): 42 % of control and 69 % of control

Cc1cnc(/C=N\NC(N)=S)c2cccc(N)c12
T/C (endpoint: median tumor weight (est.), dose: 6.25 mg/kg/injection, schedule: Q07DX005 (ip), vehicle: saline with Tween-80): 32 % of control and 83 % of control

N[C@@H](Cc1ccc(N(CCCl)CCCl)cc1)C(=O)O
T/C (endpoint: median tumor weight (est.), dose: 2.0 mg/kg/injection, schedule: Q07DX005 (ip), vehicle: suspension in saline): 17 % of control and 49 % of control

CC[C@@]1(O)C[C@H](OC2CC(N(C)C)C(OC3CC(O)C(O[C@@H]4O[C@@H](C)C(=O)C=C4N)C(C)O3)C(C)O2)c2c(cc3c(c2O)C(=O)c2c(O)ccc(O)c2C3=O)[C@H]1C(=O)OC (some centres not stated)
T/C (endpoint: median tumor weight (est.), dose: 0.75 mg/kg/injection, schedule: Q07DX005 (ip), vehicle: suspension in saline): 33 % of control and 170 % of control
T/C (endpoint: median tumor weight (est.), dose: 1.5 mg/kg/injection, schedule: Q07DX005 (ip), vehicle: suspension in saline): 61 % of control and 154 % of control

CNc1nc2c(N)ncnc2n1C1OC(CO)C(O)C1O (configuration not stated)
T/C (endpoint: median tumor weight (est.), dose: 12.5 mg/kg/injection, schedule: Q07DX005 (ip), vehicle: suspension in saline): 60 % of control and 115 % of control

CCOC(=O)C(CC(C)C)NC(=O)C(Cc1ccc(N(CCCl)CCCl)cc1)NC(C)=O (configuration not stated)
T/C (endpoint: median tumor weight (est.), dose: 16.0 mg/kg/injection, schedule: Q07DX005 (ip), vehicle: saline with Tween-80): 64 % of control and 91 % of control

O=P1(NCCCl)OCCCN1CCCl (configuration not stated)
T/C (endpoint: median tumor weight (est.), dose: 12.5 mg/kg/injection, schedule: Q07DX005 (ip), vehicle: saline): 38 % of control and 103 % of control

COc1cc([C@@H]2c3cc4c(cc3[C@@H](OC3OC5CO[C@@H](c6cccs6)OC5C(O)C3O)[C@H]3COC(=O)[C@H]23)OCO4)cc(OC)c1O (some centres not stated)
T/C (endpoint: median tumor weight (est.), dose: 1.0 mg/kg/injection, schedule: Q07DX005 (ip), vehicle: saline): 41 % of control and 114 % of control
T/C (endpoint: median tumor weight (est.), dose: 1.0 mg/kg/injection, schedule: Q07DX005 (ip), vehicle: suspension in saline): 79 % of control and 105 % of control
T/C (endpoint: median tumor weight (est.), dose: 2.0 mg/kg/injection, schedule: Q07DX005 (ip), vehicle: saline): 62 % of control and 105 % of control
T/C (endpoint: median tumor weight (est.), dose: 8.0 mg/kg/injection, schedule: Q07DX005 (ip), vehicle: saline): 7 % of control and 106 % of control
T/C (endpoint: median tumor weight (est.), dose: 16.0 mg/kg/injection, schedule: Q07DX005 (ip), vehicle: suspension in saline): 59 % of control and 98 % of control

CN(N=O)C(=O)N[C@@H](C=O)[C@@H](O)[C@H](O)[C@H](O)CO
T/C (endpoint: median tumor weight (est.), dose: 32.0 mg/kg/injection, schedule: Q07DX005 (ip), vehicle: other): 89 % of control and 158 % of control
